According to PubChem BioAssay AID1508642 (National Center for Advancing Translational Sciences (NCATS), 2021):
Hit rate of the full screen: of about 43,000 compounds, about 200 (0.47%) were called active. The inconclusive results got no clear call from the source; some entries with a clear call stand among them for comparison. Calls come from the whole dose curve; as a rule, active = well fitted cell-killing curve with a large enough effect; inconclusive = small, poorly fitted or top-dose-only effect, or effect the other way; inactive = flat fitted curve, though single readings scatter. A potency beside an inconclusive call is a rough fit, not a confirmed value.

Assay: Cell viability qHTS assay in S16 Pmp22-F2sN cells; note: nearly all actives have a fitted effect of over 65% in size
Details: S16 Pmp22-F2sN Schwann cells (luciferase reporters placed in the Pmp22 gene) viability, CellTiter-Glo, 24 h; activity change, negative = cytotoxicity: at 57.5 µM (top of the series)
From the text: Assay Provider: Jim Inglese Ph.D. National Center for Advancing Translational Science, National Institutes of Health, Rockville, MD CMT is a heterogeneous group of neurological disorders that affect approximately 1 in 2,500 people. In particular, the most common form of CMT, CMT1A is genetically linked to the duplication of the PMP22 gene which leads to Schwann cell overexpression, thus manifesting itself as a typical case of dose-sensitive diseases. To identify small molecule compounds that can mediate the expression of PMP22 we developed a phenotypic assay screening strategy by utilizing genome editing techniques to construct Schwann cell lines containing novel reporter technology to monitor the transcriptional or translational regulation of PMP22. For high sensitivity we use a bioluminescent reporter system embedded in the 3' UTR of the PMP22 gene (S16(c9) Pmp22-F2sN) to identify compounds that inhibit gene expression. […] We can further discriminate the effect of all transcriptionally active molecules on PMP22 translation or stability with an assay that incorporates a short NLuc peptide (HiBiT) at the C-terminus of expressed PMP22 (S16(f8) PMP22-HiBiT) allowing alpha complementation and luminescence detection of membrane-associated PMP22 protein. These assays were screened against the NCATS Sytravon Library Collection. Miniaturization of these assays to 1536-well plate format for quantitative high throughput screening (qHTS) yielded rich data sets immediately from the qHTS assay (S16(c9) Pmp22-F2sN), when compared with data from a cell viability assay (Cell TiterGlo) to identify compounds that decreased the output signals through cellular toxicity to streamline the selection process of actives for subsequent characterization using the HiBiT assay (S16(f8) PMP22-HiBiT).
Cell viability assay in S16 Pmp22-F2sN cells PROTOCOL TABLE (format as described by Inglese J, Shamu CE and Guy RK. 2007) SEQUENCE No. (e.g., 1, 2, 3, etc.); […] (e.g., Cells, Incubation, Reagent, etc.); VALUE and DESCRIPTION. 1. Cells. Add 500-1,000 cells in 4 uL in growth media (DMEM High Glucose, No Phenol Red media + 10% heat-inactivated FBS + 1% Pen/Strep supplemented media) per well into Greiner 1536-well white/solid bottom high base, TC-treated plates. 2. Compounds. Library compounds and controls added at 23nL per well, transferred by Pin Tool. 3. Incubation. Incubate plates at 37C, 5% CO2, 95% RH for 24 h. 4. Reagent. Add 3uL CellTiter-Glo per well of Greiner 1536-well plates. 5. Incubation. Incubate plates at room temperature for 15 min., protect from light. 6. Detector. FLuc luminescence measured using CCD-based camera (Viewlux). NOTES (numbers refer to Sequence numbers above; values are from representative experiments) 6. Luminescence Read: Clear filter; Exposure = 1 sec, Gain = High, Speed = Slow, Binning = 2X REFERENCES: 1. Inglese J, Shamu CE and Guy RK, Reporting data from high throughput screening of small molecule libraries, Nature Chemical Biology, 2007, 3(8): 438-441. doi.org/10.1038/nchembio0807-438 2. Yasgar A, Shinn P, Jadhav A, Auld DS, Michael S, Zheng W, Austin CP, Inglese J and Simeonov A, Compound Management for Quantitative High-Throughput Screening. J. Assoc. Lab. Auto., 2008, 13: 79-89. doi: 10.1016/j.jala.2007.12.004
% is set by controls: 0 for no effect and ±100 for the full control effect; potency is the fitted concentration of half-maximal effect; tags give direction and shape of the fitted curve.

| Compound | Potency | activity change, negative = cytotoxicity |
| --- | --- | --- |
| CCCN(CCC)CCCNC(=O)c1cc2c(-c3ccc(OC)c(OC)c3)nn(C)c2s1 | inconclusive: 39.8 µM [cytotoxic, single point] |  |
| CCOc1ccc(S(=O)(=O)c2c(C(=O)c3ccc(CC)cc3)cnc3ccc(C)cc23)cc1 |  | inactive: 4.18% |
| CN(C)CCNC(=O)C1CCN(Cc2cc3ccccc3n2Cc2ccccc2)CC1 | inconclusive: 39.8 µM [cytotoxic, single point] |  |
| CC(C)(C)CC(=O)NCC(c1ccc2c(c1)OCO2)N1CCN(c2ccccc2)CC1 (stereo not given) | inconclusive: 39.8 µM [cytotoxic, single point] |  |
| CCC(C)NC(=O)Cn1c(=O)n(CCCCCC(=O)NCc2ccccc2Cl)c(=O)c2sccc21 (stereo not given) |  | inactive: 11.1% |
| CCOc1ccccc1CNCc1cccn1-c1nnc(N2CCN(c3ccccc3)CC2)s1 | inconclusive: 28.2 µM [cytotoxic, single point] |  |
| CC(=O)c1c(C)oc2c1cc(NS(=O)(=O)c1ccc(Br)cc1)c1ccccc12 | inconclusive: 6.31 µM [cytotoxic, full curve, poor fit] |  |
| COC(=O)c1ccc(NC(=O)c2nc(-c3ccc(Cl)cc3)n3c2CCCCC3)cc1 | inconclusive: 5.62 µM [cytotoxic, full curve, poor fit] |  |
| O=C(Cn1nc(C(F)(F)F)c2c1CCCC2)Nc1ccc(Br)cc1 |  | inactive: -14.8% |
| COc1ccc(-n2ncc3c(NC4CCCC4)ncnc32)cc1 | inconclusive: 11.2 µM [rising, partial curve, poor fit] |  |
| CCOc1ccc(OCC)c(Nc2ccc3cc(S(=O)(=O)N4CCCC4)ccc3n2)c1 | inconclusive: 39.8 µM [cytotoxic, single point] |  |
| COc1ccc(NC(=O)CSc2ccc3nc(-c4ccccc4)cn3n2)c(OC)c1 | inconclusive: 8.91 µM [rising, partial curve, poor fit] |  |
| Cc1ccc(NC(=O)c2ccc3[nH]c(C)cc(=O)c3c2)cc1 | inconclusive: 7.08 µM [cytotoxic, single point] |  |
| CCOc1ccc(S(=O)(=O)Nc2cccc(-c3ccc(OCC)nn3)c2)cc1 | inconclusive: 39.8 µM [cytotoxic, single point] |  |
| COc1ccccc1CCNC(=O)C(=O)NCC(c1cccs1)S(=O)(=O)c1cccs1 (stereo not given) | inconclusive: 25.1 µM [cytotoxic, single point] |  |
| Cc1ccc(/C=C/c2onc(C)c2S(=O)(=O)N2CCC(C(=O)Nc3cc(C)ccc3C)CC2)cc1 | inconclusive: 1.26 µM [rising, partial curve, poor fit] |  |
| O=C(Nc1ccc(S(=O)(=O)N2CCCCC2c2cccnc2)cc1)c1ccc(Br)cc1 (stereo not given) | inconclusive: 31.6 µM [cytotoxic, single point] |  |
| Cc1cc(C)c2oc(C(=O)Nc3ccc(S(=O)(=O)N4CCCCCC4)cc3)cc(=O)c2c1 |  | inactive: 11.6% |
| COc1cccc(NC(=O)CSC2=Nc3ccccc3C3=NC(CCC(=O)NCCc4ccccc4)C(=O)N23)c1 (stereo not given) | inconclusive: 39.8 µM [cytotoxic, partial curve, poor fit] |  |
| Cc1cccc(NC(=O)c2ccc3nc(C(C)C)oc3c2)c1C | inconclusive: 14.1 µM [cytotoxic, partial curve] |  |

| Compound | Potency | activity change, negative = cytotoxicity |
| --- | --- | --- |
| CCC(=O)N1CCc2cc(S(=O)(=O)CCC(=O)N3CCN(c4ccc(Cl)cc4)CC3)ccc21 |  | inactive: -1.46% |
| CC(C)CC(NS(=O)(=O)c1ccc2c(c1)oc(=O)n2C)C(=O)NCc1ccccc1Cl (stereo not given) |  | inactive: -2.2% |
| CCCOc1ccc(CN(C(=O)Cc2coc3ccc(CC)cc23)C2CCS(=O)(=O)C2)cc1 (stereo not given) |  | inactive: 4.59% |
| Cc1nc2ccn(Cc3ccccc3)c(=O)c2cc1C(=O)N1CCN(c2ccccc2F)CC1 | inconclusive: 3.55 µM [cytotoxic, full curve, poor fit] |  |
| Cc1cc(F)ccc1S(=O)(=O)Nc1ccc2oc3c(c2c1)CC(C)CC3 (stereo not given) | inconclusive: 20 µM [cytotoxic, partial curve, poor fit] |  |
| COc1ccccc1N1CCN(C(=O)c2cn(CC(C)C)c(=O)c3c2c2ccccc2n3C)CC1 | inconclusive: 39.8 µM [cytotoxic, single point] |  |
| CC(C)c1ccc(NC(=O)c2ccc3c(c2)CCN3S(=O)(=O)c2ccccc2)cc1 | inconclusive: 15.8 µM [cytotoxic, partial curve, poor fit] |  |
| Cc1ccc(C(=O)N2CCc3cc(CNS(=O)(=O)c4cccs4)ccc32)cc1 | inconclusive: 39.8 µM [cytotoxic, single point] |  |
| Cc1ccc(C(=O)c2c(N)c(-c3nc(-c4ccc5c(c4)OCO5)cs3)c3ccccn23)cc1C | inconclusive: 31.6 µM [cytotoxic, single point] |  |
| CCC(Sc1nc2ccccc2c2nc(CCn3c(C)nc4ccccc43)nn12)C(=O)Nc1ccc(F)cc1 (stereo not given) |  | inactive: 2.53% |
| CCCN(CCC)CC(O)Cn1cc(/C=C/C(=O)c2ccc(OC)cc2)c2ccccc21 (stereo not given) | inconclusive: 39.8 µM [cytotoxic, single point] |  |
| O=C(Nc1ccc(F)cc1)c1ccc(Cn2nc(N3CCN(c4ccccc4)CC3)ccc2=O)o1 | inconclusive: 35.5 µM [cytotoxic, single point] |  |
| CCc1ccc(NC(=O)c2sc3nc4c(cc3c2N)CN(CC)CC4)cc1 | inconclusive: 25.1 µM [cytotoxic, single point] |  |
| CCN1CCN(CCCNC(=O)Cn2c(-c3cccs3)cc3ccccc32)CC1 | inconclusive: 6.31 µM [rising, partial curve, poor fit] |  |
| O=C(NCC(c1cccnc1)N1CCc2ccccc21)c1ccc(F)c(F)c1 (stereo not given) | inconclusive: 28.2 µM [cytotoxic, partial curve, poor fit] |  |
| CCOc1ccc(NC(=O)CC2C(=O)N(c3ccc(C)cc3)C(=O)N2C2CCCCC2)cc1 (stereo not given) | inconclusive: 25.1 µM [cytotoxic, single point] |  |
| COC(=O)c1ccc(C2C=C(c3ccc(Cl)cc3)Nc3nc4ccccc4n32)cc1 (stereo not given) |  | inactive: -24.2% |
| COc1ccc(S(=O)(=O)N(CC(=O)Nc2ccc(OC)cc2OC)c2ccc(Cl)cc2)cc1 |  | inactive: 17.8% |
| COc1ccc(OCC(=O)Nc2cc(-c3cccc(Cl)c3)nn2-c2ccccc2)cc1 | inconclusive: 31.6 µM [cytotoxic, partial curve, poor fit] |  |
| N#Cc1ccc(C(=O)N2CCN(c3nc4ccc(F)cc4s3)CC2)cc1 | inconclusive: 8.91 µM [cytotoxic, full curve, poor fit] |  |

| Compound | Potency | activity change, negative = cytotoxicity |
| --- | --- | --- |
| COc1ccccc1N1CCN(S(=O)(=O)c2ccc(F)c(C(=O)Nc3ccc(C)c(F)c3)c2)CC1 | inconclusive: 12.6 µM [cytotoxic, partial curve, poor fit] |  |
| COc1ccc(NC(=O)c2ccco2)cc1NC(=O)COc1cc(C)cc(C)c1 |  | inactive: -0.0455% |
| CCOc1ccc(-c2n[nH]c3c2C(c2ccccc2OC)N(c2ccc(Br)cc2)C3=O)cc1 (stereo not given) | inconclusive: 39.8 µM [cytotoxic, single point] |  |
| CC(=O)c1[nH]c(C)c(C(=O)NCCc2ccc(C)cc2)c1C |  | inactive: 0.904% |
| Cc1cc(C)c(NC(=O)CSc2nccn2Cc2ccco2)c(C)c1 |  | inactive: 1.1% |
| O=C(NCc1ccc(F)cc1)c1ccc(NC(=O)N2CC3CCCN3c3ccccc32)cc1 (stereo not given) | inconclusive: 14.1 µM [cytotoxic, partial curve] |  |
| COc1ccc(CNC(=O)COCc2cc(-c3cccs3)on2)cc1OC | inconclusive: 35.5 µM [cytotoxic, partial curve, poor fit] |  |
| Cc1ccc(CSc2cn(CC(=O)N3CCCCC3)c3ccccc23)cc1 | inconclusive: 25.1 µM [cytotoxic, single point] |  |
| COc1cc(CN(C(=O)COc2ccc(C)c(C)c2)c2ccccn2)cc(OC)c1OC | inconclusive: 39.8 µM [cytotoxic, partial curve, poor fit] |  |
| CCCN(CCC)CCNC(=O)c1cc2c(-c3ccccc3F)nn(C)c2s1 | inconclusive: 35.5 µM [cytotoxic, single point] |  |
| Cc1ccc(CN2c3ccccc3S(=O)(=O)c3ccccc32)cc1 | inconclusive: 0.316 µM [cytotoxic, full curve] |  |
| CCC(C(=O)Nc1cccc(C#N)c1)n1c(=O)c(-c2ccccc2NC(C)=O)nc2ccccc21 (stereo not given) | inconclusive: 28.2 µM [cytotoxic, partial curve, poor fit] |  |
| Cc1ccc(S(=O)(=O)Nc2cc3c(cc2N2CCOCC2)n(C)c(=O)n3C)c(C)c1 | inconclusive: 39.8 µM [cytotoxic, partial curve, poor fit] |  |
| CCOC(=O)c1cc2c(=O)n3ccccc3nc2n(Cc2ccco2)c1=NC(=O)c1cccc(F)c1 | inconclusive: 28.2 µM [cytotoxic, partial curve, poor fit] |  |
| Cc1cc([N+](=O)[O-])ccc1NC(c1nnc(-c2ccccc2)o1)c1ccccc1F (stereo not given) |  | inactive: 4.91% |
| CCC1CCCCN1C(=O)CSc1nc(-c2ccc(OC)c(OC)c2)cc(C(F)(F)F)n1 (stereo not given) | inconclusive: 39.8 µM [cytotoxic, single point] |  |
| CCc1c(C)sc2c1CCN(C(=O)Nc1cc(C)cc(C)c1)C2c1ccccc1 (stereo not given) |  | inactive: -17.8% |
| COCCCN1C(=O)c2[nH]nc(-c3ccccc3O)c2C1c1ccc(OCc2ccccc2)cc1 (stereo not given) | inconclusive: 39.8 µM [cytotoxic, single point] |  |
| Oc1ccc(-c2nc(-c3ccccc3)c(-c3ccc(Br)cc3)[nH]2)cc1 | inconclusive: 39.8 µM [cytotoxic, single point] |  |
| Cc1ccc(NC(=O)c2ccc(CNS(=O)(=O)c3ccc4c(c3)C(C)(C)C(=O)N4C)cc2)cc1C | inconclusive: 31.6 µM [cytotoxic, single point] |  |
